# Reference: PubChem BioAssay AID485281 (National Center for Advancing Translational Sciences (NCATS), 2010)
# “And” between values parts separate entries of the source, which are not always exact repeats. Equal entries are not always repeated. Screen size: about 350,000 compounds; about 260 (0.074%) were called active. Inconclusive results, whose numbers are uncertain, are shown with a selection of clear calls. Calls follow the shape of the dose curve; as a rule, active = well fitted inhibition curve with a large enough effect; inconclusive = small, poorly fitted or top-dose-only effect; inactive = no such curve, though single readings can be large or run the other way. Potencies of inconclusive entries are doubtful fits and often do not repeat.
# Target: Ferritin light chain (Equus caballus) (UniProt P02791)
# Assay: qHTS Assay for Identification of Novel General Anesthetics; also: nearly all actives have a fitted effect of over 20% in size
# Settings: apoferritin/1-aminoanthracene competitive binding, fluorescence; activity change, negative = displacement: at 77.5 µM (top of the series)
# Outline: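 In PBS, apoferritin at 10 uM is loaded with 1-AMA from a 50% saturated solution. After 10 min of compound exposure at ambient temperature, reduced 535 nm fluorescence indicates probe displacement.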
# % is scaled to controls: 0 for no effect and ±100 for the full control effect; potency is read from the fitted curve at half-maximal effect; tags tell the direction and shape of the fitted curve.
# Chain of UniProt P02791 (P02791 whole entry, looked up): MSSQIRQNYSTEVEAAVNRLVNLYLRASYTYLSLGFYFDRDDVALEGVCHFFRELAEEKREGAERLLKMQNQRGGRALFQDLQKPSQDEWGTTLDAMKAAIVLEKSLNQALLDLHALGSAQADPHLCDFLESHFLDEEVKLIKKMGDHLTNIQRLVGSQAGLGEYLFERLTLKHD
Structure (SMILES),"activity change, negative = displacement",Potency
CC(C)(C)OC(=O)N[C@@H](Cc1ccccc1)c1nnc(SCC(=O)c2ccc(Cl)cc2)o1,inactive: -19.5%,–
COc1ccc(C(=O)NCC(=O)N/N=C/c2cn(C)c3ccccc23)cc1OC,–,"inconclusive: 25.1 µM [inhibitor, partial curve]"
C=CCn1c(SCC(=O)Nc2ncc(Cc3ccc(Br)cc3)s2)nnc1-c1ccncc1,–,"inconclusive: 14.1 µM [inhibitor, partial curve]"
O=C(COC(=O)CC12CC3CC(CC(C3)C1)C2)Nc1cccnc1Cl,–,"inconclusive: 44.7 µM [inhibitor, single point]"
COc1ccc(Cn2c(C(=O)O)c(CNCCc3cc(OC)ccc3OC)c3ccc(C)cc32)cc1,–,"inconclusive: 22.4 µM [inhibitor, partial curve]"
COc1ccc(C/C(N)=N/OC(=O)CCc2ccccc2)cc1,inactive: -14.1%,–
Cc1cc(Cl)ccc1OCCCC(=O)NCCN1C(=O)S/C(=C\c2cccnc2)C1=O,–,"inconclusive: 28.2 µM [inhibitor, partial curve]"
Cc1c(Cl)c([N+](=O)[O-])nn1CC(=O)NC12CC3CC(CC(C3)C1)C2,–,"inconclusive: 35.5 µM [inhibitor, partial curve]"
CC1Oc2ccccc2C=C1/C=N/NC(=O)c1ccccc1 (stereo not given),inactive: 39%,–
Cc1c(C#N)c(N=CN(C)C)c(C(=O)c2ccc(Br)cc2)n1-c1ccc(Cl)cc1,–,"inconclusive: 39.8 µM [inhibitor, partial curve]"
CC(C)(C)S(=O)(=O)c1nc2ccccc2s1,–,"inconclusive: 14.1 µM [inhibitor, partial curve]"
Cc1ccc2nc(SCc3nc4ccccc4c(=O)[nH]3)[nH]c2c1,inactive: -10.4%,–
COc1cccc(NC(=O)CCCNC(=O)Cn2cnc3sc(C)c(C)c3c2=O)c1,inactive: -10.8%,–
NC(=O)COC(=O)c1sc2cc(F)ccc2c1Cl,–,"inconclusive: 17.8 µM [inhibitor, partial curve]"
C/C(=N\NC(=O)CNc1ccccc1Cl)C(C)(C)C,–,"inconclusive: 25.1 µM [inhibitor, partial curve]"
Cc1ccc(S(=O)(=O)NNC(=O)C2Cc3c(ccc4ccccc34)O2)cc1 (stereo not given),–,"inconclusive: 39.8 µM [inhibitor, single point]"
CN1CCN(CCCNC(=O)c2ccc(/C=C3\Sc4ccccc4N(Cc4ccc(F)cc4)C3=O)cc2)CC1,inactive: -21%,–
O=c1c2ccccc2nnn1CSc1nnc(C2COc3ccccc3O2)n1-c1ccccc1 (stereo not given),–,"inconclusive: 20 µM [inhibitor, partial curve]"
COc1ccc(Cn2nnnc2C(c2cc3ccc(OC)cc3[nH]c2=O)N2CCC(C)CC2)cc1 (stereo not given),–,"inconclusive: 8.91 µM [inhibitor, full curve]"
Cc1cc(OCCCn2ccnc2)cc(C)c1Cl,–,"inconclusive: 20 µM [inhibitor, partial curve]"
N#C/C(=C/c1ccc2c(c1)OCO2)C(=O)NCCc1c[nH]c2ccccc12,–,"inconclusive: 15.8 µM [inhibitor, partial curve]"
CCn1c2ccccc2c2cc(NC(=O)c3ccc(Br)o3)ccc21,–,"inconclusive: 15.8 µM [inhibitor, partial curve]"
O=C(CCCc1ccccc1)Nc1ccc(Br)cc1F,–,"inconclusive: 15.8 µM [inhibitor, partial curve]"
O=C(COC(=O)/C=C/c1ccc(S(=O)(=O)N2CCc3ccccc32)cc1)NC1CCS(=O)(=O)C1 (stereo not given),–,"inconclusive: 39.8 µM [inhibitor, partial curve]"

Structure (SMILES),"activity change, negative = displacement",Potency
CC1(C)OC(C)(C)/C(=C\c2ccccc2[N+](=O)[O-])C1=O,–,"inconclusive: 31.6 µM [inhibitor, single point]"
O=C(CSc1nnc(CNc2ccccc2)o1)c1ccc2c(c1)OCCO2,–,"inconclusive: 20 µM [inhibitor, partial curve]"
Cc1cc(C)cc(NC(=O)Cc2c(C(=O)O)c(C)cn2C)c1,inactive: -3.82%,–
CC(Sc1nc(-c2ccccc2)cc(C(F)(F)F)n1)C(=O)NCc1ccco1 (stereo not given),–,"inconclusive: 25.1 µM [inhibitor, partial curve]"
Cc1ccc(/C=N/NC(=O)CCSc2ccccc2)cc1,–,"inconclusive: 39.8 µM [inhibitor, partial curve]"
Fc1cccc(CSc2nc3ncccc3[nH]2)c1,–,"inconclusive: 22.4 µM [inhibitor, partial curve]"
COc1ccc(-c2c(C)nn3c(C(F)(F)F)cc(-c4ccccc4)nc23)cc1,inactive: 1.74%,–
CCC(=O)N1CCc2cc(S(=O)(=O)CCC(=O)NC3CCCCC3)ccc21,inactive: -7.79%,–
Cc1cc(C)cc(NS(=O)(=O)Cc2ccccc2)c1,–,"inconclusive: 31.6 µM [inhibitor, partial curve]"
CCCNC(=O)Nc1nc2ccccc2s1,inactive: 7.68%,–
O=C(CSCc1ccc(Cl)cc1)c1ccco1,–,"inconclusive: 28.2 µM [inhibitor, partial curve]"
CCOc1cc(C)c(Cl)cc1S(=O)(=O)N1CCCC1,inactive: -9.63%,–
CCN1CCN(C(c2cccs2)C(C)NS(=O)(=O)c2ccc(F)cc2)CC1 (stereo not given),inactive: 3.88%,–
O=C(O/N=C\c1ccc(N2CCCCC2)c([N+](=O)[O-])c1)c1ccc(Cl)cc1Cl,–,"inconclusive: 28.2 µM [inhibitor, partial curve]"
CCC(=O)N1CCN(c2ccc(NC(=S)NC(=O)c3ccc(OC)c([N+](=O)[O-])c3)cc2)CC1,–,"inconclusive: 35.5 µM [inhibitor, partial curve]"
COc1ccc(-c2cc(C(=O)NN)n(-c3ccccc3)n2)cc1,inactive: -11.1%,–
O=C(Cc1ccc(Cl)c(Cl)c1)OCC(=O)c1ccc[nH]1,–,"inconclusive: 31.6 µM [inhibitor, partial curve]"
COc1ccc(Cn2ccc3nc(C)c(C(=O)N4CCN(c5ccc(OC)cc5)CC4)cc3c2=O)cc1,–,"inconclusive: 5.62 µM [inhibitor, full curve]"
COc1cccc(/C=N/n2c(N)nc3ccccc32)c1OC,inactive: 45.9%,–
Cc1cc(-n2c(C)cc(C(=O)CN3C(=O)NC4(CCCCCC4)C3=O)c2C)no1,–,"inconclusive: 20 µM [inhibitor, partial curve]"
CCOC(=O)C1=C(C)NC(C)=C(C(=O)OC)C1c1cccc([N+](=O)[O-])c1 (stereo not given),–,"inconclusive: 39.8 µM [inhibitor, partial curve] and inconclusive: 35.5 µM [inhibitor, single point]"
Cc1nn(C(=O)Cn2ccc([N+](=O)[O-])n2)c(C)c1Br,–,"inconclusive: 28.2 µM [inhibitor, partial curve]"
O=C(COc1ccccc1)N1CCN(C(=O)c2ccco2)CC1,–,"inconclusive: 50.1 µM [inhibitor, single point]"
COc1ccccc1/C=C\C(=O)O,inactive: 0.756%,–

Structure (SMILES),"activity change, negative = displacement",Potency
CC1SCCN1S(=O)(=O)c1ccc2ccccc2c1 (stereo not given),–,"inconclusive: 22.4 µM [inhibitor, partial curve]"
COc1ccc(N(C(=O)CCl)C(C(=O)NC2CCCCC2)c2cccnc2)cc1 (stereo not given),inactive: -14.7%,–
CCc1sc(C(=O)Nc2ccccc2N2CCOCC2)cc1C,–,"inconclusive: 35.5 µM [inhibitor, single point]"
CCOc1ccc(-c2nnc(-c3snc(-c4ccc(F)cc4)c3N=CN(C)C)o2)cc1,inactive: -15%,–
COc1ccc(Cn2c(C(C)C)nc3sc4ccccc4c(=O)c3c2=O)cc1,inactive: 3.32%,–
COc1ccc(C(=O)Nc2nnc(SCc3cc(=O)n4cccc(C)c4n3)s2)cc1,inactive: -6.46%,–
COc1cc(CNc2nc(C)c([N+](=O)[O-])c(C)c2C#N)cc(OC)c1OC,–,"inconclusive: 50.1 µM [inhibitor, single point]"
O=C1C(Cl)=C(NCCN2CCOCC2)C(=O)c2ccccc21,inactive: -15.1%,–
O=C(CCC1=NS(=O)(=O)c2ccccc2N1)NC1CCCCCCC1,–,"inconclusive: 20 µM [inhibitor, partial curve]"
C/C=C\C=C/C(=O)Nc1cccc(C2=NOC3(C2)C[C@@H](C(N)=O)N(C(=O)COc2ccc(Cl)cc2)C3)c1 (stereo not given in full),inactive: -10.9%,–
Cc1cc(C(=O)O)ccc1-n1c(C)cc(/C=C2\SC(=O)NC2=O)c1C,inactive: -3.98%,–
COc1ccc(CS(=O)(=O)/C(Cl)=C(/Cl)C(=O)Nc2ccc(OC)nc2)cc1,–,"inconclusive: 25.1 µM [inhibitor, single point]"
Cc1ccc(C(=O)CSc2nc3cccnc3n2C)cc1,inactive: -14.8%,–
COC(=O)c1ccc(Cn2nnc3c(=O)[nH]c(C4CCN(S(=O)(=O)c5ccc(F)cc5)CC4)nc32)cc1,–,"inconclusive: 22.4 µM [inhibitor, partial curve]"
CCCCn1cc(S(=O)(=O)c2ccc(C)c(C)c2)c(=O)c2cc(F)c(N(CC)CC)cc21,inactive: -4.45%,–
CCC(=O)N1CCc2cc(CNC(=O)c3ccc(OC)cc3)ccc21,inactive: -11.9%,–
COc1ccc(/C=C/C(=O)c2ccccc2O)cc1,–,"inconclusive: 35.5 µM [inhibitor, partial curve]"
Cc1ccc(NC(=O)CSc2nc(=O)n(Cc3ccco3)c3c2CCC3)cc1F,–,"inconclusive: 22.4 µM [inhibitor, partial curve]"
CCn1c(=O)cc(SCC(=O)NCCCN2CCN(c3ccc(F)cc3)CC2)c2ccccc21,–,"inconclusive: 20 µM [inhibitor, partial curve]"
CCC(=O)N1CCc2cc(CNC(=O)Cc3ccc(F)cc3)ccc21,inactive: -7.95%,–
Cc1ccc(F)cc1CNC(=O)c1cc(COc2ccc3ncccc3c2)on1,–,"inconclusive: 14.1 µM [inhibitor, partial curve]"
Cc1ccc(NC(=O)c2cc(S(=O)(=O)NC3CCCCC3)ccc2F)cc1Cl,–,"inconclusive: 12.6 µM [inhibitor, single point]"
